The BET-seq Pho4 binding data (Le et al. 2018)
Some of the results follow. Values were computed here from the reads of four pooled replicates and scatter widely.

Molecular target: T1, Pho4 (S. cerevisiae) (UniProt P07270)
T1 sequence: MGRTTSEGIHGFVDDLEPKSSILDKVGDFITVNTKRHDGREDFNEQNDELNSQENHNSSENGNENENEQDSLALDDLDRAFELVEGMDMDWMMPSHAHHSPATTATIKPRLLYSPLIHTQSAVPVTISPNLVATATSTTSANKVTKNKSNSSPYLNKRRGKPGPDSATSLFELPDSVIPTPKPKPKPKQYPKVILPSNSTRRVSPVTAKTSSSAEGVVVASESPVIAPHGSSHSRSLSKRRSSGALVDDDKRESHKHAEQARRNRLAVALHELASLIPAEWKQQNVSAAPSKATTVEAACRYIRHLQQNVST
Assay: relative binding free energy (BET-seq); higher = weaker binding
Conditions: reference: library average

Sequence | relative binding free energy
TAGTGCACGTGGAGCG | 0.02 kcal/mol
CATGTCACGTGGTTAA | 0.1 kcal/mol
CGTGTCACGTGTAGCT | 0.1 kcal/mol
TTGTACACGTGGTATC | 0.1 kcal/mol
TTCGGCACGTGAGTGG | 0.09 kcal/mol
TGTGCCACGTGTGATG | 0.07 kcal/mol
AGTCTCACGTGGAGAG | 0.33 kcal/mol
TACATCACGTGTGTTG | 0.13 kcal/mol
TTTTACACGTGGAGTA | 0.21 kcal/mol
TGGCGCACGTGGATAG | -0.03 kcal/mol
TGTAGCACGTGGCAAG | -0.22 kcal/mol
AGCGGCACGTGAAGTG | 0.18 kcal/mol
TTGTGCACGTGGTGGT | -0.07 kcal/mol
AGGGTCACGTGGGCTA | 0 kcal/mol
GTTACCACGTGTTTTA | 0.14 kcal/mol
AGTATCACGTGGTTAA | 0.08 kcal/mol
AGGAACACGTGTTCGT | 0.01 kcal/mol
AGGGGCACGTGGTCTG | -0.21 kcal/mol
CTTCGCACGTGGGGGG | -0.22 kcal/mol
GCTGACACGTGTGTGA | 0.19 kcal/mol
AAGTGCACGTGTAATA | 0.27 kcal/mol
TACGTCACGTGTTAGA | 0.13 kcal/mol
CTAGGCACGTGTTGTG | -0.06 kcal/mol
GGAAGCACGTGGTTGT | -0.08 kcal/mol
GCGTGCACGTGAGTTA | 0.18 kcal/mol
TTCTGCACGTGTAGTT | 0 kcal/mol

Sequence | relative binding free energy
ACCTTCACGTGTTGTT | 0.27 kcal/mol
TTGATCACGTGACAAG | 0.42 kcal/mol
AGGGACACGTGTGGGT | 0.07 kcal/mol
ATTGGCACGTGGGAAA | -0.12 kcal/mol
ATTGTCACGTGAGTTT | 0.3 kcal/mol
GTCTACACGTGGGCTT | 0.09 kcal/mol
ATGGTCACGTGTCGTG | 0.16 kcal/mol
TCCGGCACGTGTATGG | -0.02 kcal/mol
TTTTCCACGTGAGGAT | 0.22 kcal/mol
AGTCTCACGTGGGGGT | 0.12 kcal/mol
GTGGTCACGTGATGAA | 0.37 kcal/mol
TGGAACACGTGTGAAG | 0.05 kcal/mol
TACGACACGTGTGTTG | 0.03 kcal/mol
TTTGACACGTGGTTTT | -0.05 kcal/mol
TTAAACACGTGTAGGT | 0.1 kcal/mol
AGTCTCACGTGTTGGA | 0.17 kcal/mol
CGGGTCACGTGTAGCG | 0.08 kcal/mol
CTATTCACGTGAGGTT | 0.46 kcal/mol
CGTTGCACGTGTTTTT | 0.06 kcal/mol
TGGGTCACGTGAGCCG | 0.12 kcal/mol
GTGGGCACGTGTCTAG | -0.06 kcal/mol
TTCGGCACGTGTTCTT | -0.03 kcal/mol
GGGTTCACGTGCAATT | 0.36 kcal/mol
AGGGGCACGTGTGCTG | -0.17 kcal/mol
CGGAGCACGTGGGCTG | -0.2 kcal/mol
GGGCGCACGTGGGTCA | -0.08 kcal/mol

Sequence | relative binding free energy
ATAGACACGTGTTGTC | -0.1 kcal/mol
ATTATCACGTGGGTCA | 0.03 kcal/mol
CGTTGCACGTGATGTA | -0.03 kcal/mol
TTGGCCACGTGGTTAA | -0.1 kcal/mol
GGGTACACGTGGTTGA | 0.15 kcal/mol
CGTTGCACGTGGAATG | 0.1 kcal/mol
TAAGTCACGTGAACTG | 0.43 kcal/mol
ACTTTCACGTGTGATT | 0.25 kcal/mol
TGGACCACGTGGGCTT | -0.04 kcal/mol
TGGCGCACGTGACGTG | -0.06 kcal/mol
ATGTCCACGTGGTTAT | 0.09 kcal/mol
TATGGCACGTGGCGAT | -0.13 kcal/mol
GATTCCACGTGTAGTT | 0.26 kcal/mol
CTGGCCACGTGGGTGG | -0.24 kcal/mol
GGTTTCACGTGCTGGG | 0.45 kcal/mol
AGGGGCACGTGTGTGT | -0.07 kcal/mol
AATTTCACGTGGCGTT | 0.09 kcal/mol
TGGAGCACGTGCAATG | -0.11 kcal/mol
GAAGTCACGTGTGGTA | 0.09 kcal/mol
AGGAGCACGTGGTAAT | -0.03 kcal/mol
GACTTCACGTGAGGGA | 0.52 kcal/mol
CTGGGCACGTGCAGTG | -0.09 kcal/mol
GGTGGCACGTGGTACA | -0.22 kcal/mol
GACTGCACGTGTGGGA | 0.17 kcal/mol
AGCGGCACGTGAATTG | 0.1 kcal/mol
GGGATCACGTGGAAGA | 0.32 kcal/mol

Sequence | relative binding free energy
TAAGACACGTGCGGGG | -0.08 kcal/mol
TTTGGCACGTGACGGC | 0.11 kcal/mol
GGAGACACGTGATTGG | 0.26 kcal/mol
ATCGGCACGTGCGTTT | -0.19 kcal/mol
TAATTCACGTGGTACT | 0.15 kcal/mol
GAAAACACGTGGTGGT | 0.07 kcal/mol
TTGTACACGTGAGGCT | 0.21 kcal/mol
GAGATCACGTGCTTGT | 0.15 kcal/mol
TATGGCACGTGGGTAA | -0.16 kcal/mol
AGTTGCACGTGTAGGC | 0.03 kcal/mol
TTATGCACGTGCATGT | -0.04 kcal/mol
AGGGACACGTGTAGAG | -0.04 kcal/mol
GTGTTCACGTGCATTA | 0.24 kcal/mol
TGTCACACGTGATCGG | 0.26 kcal/mol
TTGGACACGTGTTTTA | -0.01 kcal/mol
ATTGTCACGTGTGACA | 0.13 kcal/mol
TATGTCACGTGCTTTG | 0.01 kcal/mol
TTCTTCACGTGTGAGG | 0.31 kcal/mol
AGTATCACGTGAGTCG | 0.15 kcal/mol
AGGTGCACGTGAGTAG | 0.07 kcal/mol
ATGTACACGTGGTGGG | -0.11 kcal/mol
AGTTCCACGTGGGTAT | -0.04 kcal/mol
TGTCACACGTGGATGT | 0.03 kcal/mol
TGTGACACGTGTTTGA | 0.04 kcal/mol
AGCTTCACGTGTGTAG | 0.13 kcal/mol
GATAGCACGTGACGTT | 0.24 kcal/mol

Sequence | relative binding free energy
ACTTTCACGTGTTTTG | 0.19 kcal/mol
TTTTCCACGTGAGTAT | 0.48 kcal/mol
CGGTCCACGTGTGTGT | 0.01 kcal/mol
GTCGTCACGTGGGAGA | 0.02 kcal/mol
CGGATCACGTGATTGG | 0.27 kcal/mol
GCAGGCACGTGTAGGT | 0.01 kcal/mol
TCTTGCACGTGAGTGG | 0.27 kcal/mol
ATAATCACGTGTTGAA | 0.09 kcal/mol
AGTAACACGTGGAGAG | 0.03 kcal/mol
TGGAGCACGTGTGTGT | -0.06 kcal/mol
GGAGCCACGTGTGTGG | 0.02 kcal/mol
TGGGACACGTGGAATT | 0.11 kcal/mol
TTTTTCACGTGCGTAT | 0.38 kcal/mol
TATTCCACGTGTTTAT | -0.01 kcal/mol
ATGTACACGTGGGGGT | -0.16 kcal/mol
ATGTGCACGTGTCGGT | -0.02 kcal/mol
TGGTTCACGTGATTTC | 0.53 kcal/mol
TAATGCACGTGAGGAC | 0.36 kcal/mol
TTTATCACGTGGCGCT | 0.14 kcal/mol
TCTGTCACGTGTGTGG | 0.12 kcal/mol
GAGAGCACGTGGTTGG | -0.12 kcal/mol
AGTGTCACGTGGTCGA | -0.07 kcal/mol
TCCGTCACGTGTGAGG | 0.24 kcal/mol
GTAGGCACGTGAAGCT | 0.09 kcal/mol
TTAGTCACGTGTTGAA | 0.09 kcal/mol
GTTGGCACGTGGGGCA | -0.24 kcal/mol

Sequence | relative binding free energy
TATGTCACGTGCGGTA | -0.04 kcal/mol
TGTAGCACGTGTTACG | -0.16 kcal/mol
TTGGTCACGTGGTCGT | 0.02 kcal/mol
TGGGCCACGTGGAGTA | 0.03 kcal/mol
AGTATCACGTGCGAGT | 0.17 kcal/mol
AGATGCACGTGTGTTG | -0.09 kcal/mol
TGGAGCACGTGTTCAT | -0.15 kcal/mol
CTGTGCACGTGTCGTG | 0 kcal/mol
TAGTTCACGTGGGTGA | 0.21 kcal/mol
TGATGCACGTGCCGGG | 0 kcal/mol
TGTGTCACGTGCGTCG | -0.09 kcal/mol
ATTTCCACGTGGGTGT | -0.1 kcal/mol
AAGTTCACGTGGTGAG | 0.17 kcal/mol
GGTGTCACGTGCGTAT | 0.09 kcal/mol
TAGTGCACGTGTACGG | 0.01 kcal/mol
CGGGGCACGTGTTAAG | -0.14 kcal/mol
TTGGTCACGTGAGTCA | 0.49 kcal/mol
GTTTGCACGTGTATGA | 0.05 kcal/mol
TAATTCACGTGATTAA | 0.22 kcal/mol
AGGGTCACGTGGCGAA | -0.06 kcal/mol
CATTTCACGTGTGGTG | 0.34 kcal/mol
AGGAGCACGTGGAAAG | 0.02 kcal/mol
GAATTCACGTGGTGTC | 0.16 kcal/mol
AACGTCACGTGGTAGG | 0.1 kcal/mol
TAGATCACGTGTGAGA | 0.25 kcal/mol
ATGCACACGTGTTTGG | 0.13 kcal/mol

Sequence | relative binding free energy
TGATACACGTGTTTTG | -0.02 kcal/mol
GGAGACACGTGTAGGT | 0.07 kcal/mol
GGTGACACGTGGCGCG | -0.03 kcal/mol
TGGAACACGTGCAGTG | -0.04 kcal/mol
CGGCTCACGTGTGTGT | 0.19 kcal/mol
TAGATCACGTGTGGCG | 0.03 kcal/mol
GGTTGCACGTGTCAAG | -0.04 kcal/mol
TCTAACACGTGGGTGT | -0.26 kcal/mol
TTATGCACGTGGTATA | -0.17 kcal/mol
TCTTTCACGTGGTTAG | 0.12 kcal/mol
GGGGGCACGTGGAAAA | 0.04 kcal/mol
GTGAGCACGTGTTTTG | -0.03 kcal/mol
TTTGTCACGTGGTCGG | 0.07 kcal/mol
GGGCGCACGTGGGCTG | -0.17 kcal/mol
TTTCTCACGTGGCATG | 0.13 kcal/mol
TCTTGCACGTGGGTCT | -0.08 kcal/mol
TTTTGCACGTGGGCCA | -0.18 kcal/mol
TTAATCACGTGCTTTG | 0.13 kcal/mol
TCACGCACGTGGTTGT | -0.07 kcal/mol
TGTTCCACGTGTGTGC | 0.12 kcal/mol
CAAGTCACGTGGTAGT | 0.07 kcal/mol
ATGGACACGTGTCGTT | 0.15 kcal/mol
TAGTTCACGTGGGGTT | 0.1 kcal/mol
AGTTTCACGTGGGAAC | 0.22 kcal/mol
GAGGACACGTGAAGGT | 0.34 kcal/mol
TCGGGCACGTGGGGAG | -0.24 kcal/mol

Sequence | relative binding free energy
TTCAGCACGTGGTGTC | -0.09 kcal/mol
GGAGACACGTGTGAAT | 0.18 kcal/mol
AATTGCACGTGCGTGG | -0.2 kcal/mol
CTCGGCACGTGTAAGT | 0.1 kcal/mol
ATAATCACGTGTAGGT | 0.1 kcal/mol
AGGCGCACGTGGGAAG | -0.03 kcal/mol
GAGGGCACGTGGGATA | -0.23 kcal/mol
AGGAACACGTGCTGGT | 0.12 kcal/mol
TTGGTCACGTGGGGTT | 0.01 kcal/mol
TGGAGCACGTGCGTCG | -0.11 kcal/mol
GGGGGCACGTGGTTCA | -0.14 kcal/mol
CAAATCACGTGGGTGT | 0.09 kcal/mol
AGTTACACGTGCATGG | 0.05 kcal/mol
TAAAGCACGTGTTTTA | -0.14 kcal/mol
ATTATCACGTGTGTTT | 0.3 kcal/mol
CTTATCACGTGAATGG | 0.31 kcal/mol
TGATGCACGTGGTCGG | -0.29 kcal/mol
GGCGCCACGTGGGGTC | -0.11 kcal/mol
GGCCTCACGTGTGATT | 0.38 kcal/mol
CGTTGCACGTGCGTGG | -0.17 kcal/mol
AGATTCACGTGAGAGT | 0.43 kcal/mol
TTTATCACGTGCTGAG | 0.1 kcal/mol
TTATTCACGTGTATGT | 0.2 kcal/mol
TGAGGCACGTGGCGGT | -0.18 kcal/mol
GGCGCCACGTGTTGAG | 0.1 kcal/mol
TCTTTCACGTGGTGGG | 0.28 kcal/mol

Sequence | relative binding free energy
ATAATCACGTGGGGAA | -0.03 kcal/mol
TTAATCACGTGAGGCG | 0.09 kcal/mol
TGGTCCACGTGAGAGG | 0.24 kcal/mol
TGATGCACGTGTTGAT | -0.1 kcal/mol
ACTGGCACGTGAGGTG | 0.07 kcal/mol
TTGTACACGTGGGGAT | 0.04 kcal/mol
GCTGGCACGTGGGTTT | -0.16 kcal/mol
CAGGGCACGTGTGGTT | -0.01 kcal/mol
CGTAGCACGTGCGTTG | -0.17 kcal/mol
AGGGACACGTGATGTG | 0.14 kcal/mol
GTGGACACGTGTAAGG | 0.15 kcal/mol
AGGATCACGTGGGGAG | 0 kcal/mol
GAATACACGTGTTTTG | 0.05 kcal/mol
TTATTCACGTGAGAAT | 0.47 kcal/mol
AGGGGCACGTGTGGCT | 0 kcal/mol
CTTTGCACGTGTTTAG | 0.1 kcal/mol
AGGGGCACGTGATGGG | 0.04 kcal/mol
GAGTTCACGTGTGGCA | 0.24 kcal/mol
ATCGTCACGTGCGGTT | 0.06 kcal/mol
TGGAGCACGTGTTCAG | -0.07 kcal/mol
TGGTTCACGTGAGTGG | 0.42 kcal/mol
TTTTTCACGTGGCGGA | 0.25 kcal/mol
